The values below come from the supplement of paper PMC10369915.

This is one part of the list. No stated cut-off is given here; in the data, active = 3.2 or more and inactive = the rest. Most of these values are background signal.
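Further: displayed peptides selected on beads carrying the immobilized SH2 domain, with library peptides lacking any tyrosine serving as negative controls.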

The first test concerns the target SHP2 C-SH2 domain E139D. Description: enrichment score (SH2-bound / input frequency) (ratio); bacterial display of known human phosphotyrosine sites (pTyr-Var adds point mutants) read by sequencing; higher = stronger binding; tyrosines were phosphorylated by kinases first. The conditions noted are these: peptide library: pTyr-Var.
On to PTTKTYFPHFF [HBA1_Y43_D48Y_YF], for which the enrichment score was inactive: 1.28.

As for PEQAAYQKVVA [HBB_Y131_V127E], the enrichment score was inactive: 0.723.

Regarding AHAGEYGAEAL [HBA1_Y25], the enrichment score was inactive: 0.577.

For KKMKRYHVGKV [HARS2_Y151], the enrichment score was inactive: 0.987.

Regarding PTTKTYFPHFG [HBA1_Y43_D48G], the enrichment score was inactive: 0.862.

Turning to VRTSKYRGGGG [HBA1_Y141_L137R], the enrichment score was inactive: 0.355.

For AAGGRYDGLLG [HARS2_Y364_V368L], the enrichment score is inactive: 0.7.

In the case of TNIKRYHIAKG [HARS1_Y150_V155G], the enrichment score is inactive: 0.904.

TNIKRYHIAKV [HARS1_Y150]: the enrichment score was inactive: 0.868.

Turning to PVQAAYQKVVP [HBB_Y131_A136P], the enrichment score is inactive: 0.756.

Turning to HIAKVYRRDNP [HARS1_Y156], the enrichment score was inactive: 0.306.

In the case of ALDHKYHGGGG [HBB_Y146_A143D], the enrichment score is inactive: 0.908.

Take PVQAAYEKVVA [HBB_Y131_Q132E]: the enrichment score is inactive: 0.45.

As to VLTSKYHGGGG [HBA1_Y141_R142H], the enrichment score is inactive: 0.642.

On to PVQAAYQKVEA [HBB_Y131_V135E], for which the enrichment score is inactive: 0.684.

On to ALAHKYPGGGG [HBB_Y146_H147P], for which the enrichment score is inactive: 0.923.

On to ALTDNYMYLVI [HAGH_Y61], for which the enrichment score was inactive: 0.926.

Take ALADKYHGGGG [HBB_Y146_H144D]: the enrichment score was inactive: 1.16.

For a further test, the target named is SHP2 C-SH2 domain wild-type. Described as above. As to conditions: peptide library: pTyr-Var.
With PTTKTYFPHFF [HBA1_Y43_D48Y_YF], the enrichment score was inactive: 0.818.

On to PEQAAYQKVVA [HBB_Y131_V127E], for which the enrichment score was inactive: 0.772.

Turning to AHAGEYGAEAL [HBA1_Y25], the enrichment score was inactive: 0.624.

Consider KKMKRYHVGKV [HARS2_Y151], for which the enrichment score was inactive: 0.777.

PTTKTYFPHFG [HBA1_Y43_D48G]: the enrichment score was inactive: 0.691.

For VRTSKYRGGGG [HBA1_Y141_L137R], the enrichment score is inactive: 0.216.

As to AAGGRYDGLLG [HARS2_Y364_V368L], the enrichment score is inactive: 0.682.

As for TNIKRYHIAKG [HARS1_Y150_V155G], the enrichment score was inactive: 0.814.

TNIKRYHIAKV [HARS1_Y150]: the enrichment score is inactive: 0.847.

Consider PVQAAYQKVVP [HBB_Y131_A136P], for which the enrichment score was inactive: 0.835.

Turning to HIAKVYRRDNP [HARS1_Y156], the enrichment score is inactive: 0.415.

ALDHKYHGGGG [HBB_Y146_A143D]: the enrichment score was inactive: 0.925.

Take PVQAAYEKVVA [HBB_Y131_Q132E]: the enrichment score is inactive: 0.639.

In the case of VLTSKYHGGGG [HBA1_Y141_R142H], the enrichment score was inactive: 0.632.

In the case of PVQAAYQKVEA [HBB_Y131_V135E], the enrichment score was inactive: 0.921.

Turning to ALAHKYPGGGG [HBB_Y146_H147P], the enrichment score was inactive: 1.04.

Consider ALTDNYMYLVI [HAGH_Y61], for which the enrichment score is inactive: 0.82.

Regarding ALADKYHGGGG [HBB_Y146_H144D], the enrichment score is inactive: 0.76.

In a further test the target is SHP2 N-SH2 domain L43F. The test is described as above. As to conditions: peptide library: pTyr-Var.
For the molecule PTTKTYFPHFF [HBA1_Y43_D48Y_YF], the enrichment score is inactive: 1.33.

Consider PEQAAYQKVVA [HBB_Y131_V127E], for which the enrichment score is inactive: 0.714.

AHAGEYGAEAL [HBA1_Y25]: the enrichment score was inactive: 0.555.

KKMKRYHVGKV [HARS2_Y151]: the enrichment score is inactive: 0.875.

As for PTTKTYFPHFG [HBA1_Y43_D48G], the enrichment score is inactive: 0.901.

On to VRTSKYRGGGG [HBA1_Y141_L137R], for which the enrichment score is inactive: 0.263.

Regarding AAGGRYDGLLG [HARS2_Y364_V368L], the enrichment score is inactive: 0.705.

For TNIKRYHIAKG [HARS1_Y150_V155G], the enrichment score was inactive: 0.881.

As to TNIKRYHIAKV [HARS1_Y150], the enrichment score is inactive: 0.915.

Take PVQAAYQKVVP [HBB_Y131_A136P]: the enrichment score is inactive: 0.769.

Regarding HIAKVYRRDNP [HARS1_Y156], the enrichment score is inactive: 0.353.

Consider ALDHKYHGGGG [HBB_Y146_A143D], for which the enrichment score was inactive: 0.759.

Consider PVQAAYEKVVA [HBB_Y131_Q132E], for which the enrichment score was inactive: 0.75.

Take VLTSKYHGGGG [HBA1_Y141_R142H]: the enrichment score is inactive: 0.706.

As for PVQAAYQKVEA [HBB_Y131_V135E], the enrichment score is inactive: 1.01.

Turning to ALAHKYPGGGG [HBB_Y146_H147P], the enrichment score was inactive: 0.568.

With ALTDNYMYLVI [HAGH_Y61], the enrichment score was inactive: 0.781.

As for ALADKYHGGGG [HBB_Y146_H144D], the enrichment score was inactive: 0.645.

The next test deals with SHP2 N-SH2 domain T42A. The test is described as above. The conditions noted are these: peptide library: pTyr-Var.
For PTTKTYFPHFF [HBA1_Y43_D48Y_YF], the enrichment score was inactive: 1.2.

For the molecule PEQAAYQKVVA [HBB_Y131_V127E], the enrichment score was inactive: 0.392.

For AHAGEYGAEAL [HBA1_Y25], the enrichment score was inactive: 0.564.

Take KKMKRYHVGKV [HARS2_Y151]: the enrichment score was inactive: 0.852.

For PTTKTYFPHFG [HBA1_Y43_D48G], the enrichment score was inactive: 0.641.

For VRTSKYRGGGG [HBA1_Y141_L137R], the enrichment score is inactive: 0.296.

For AAGGRYDGLLG [HARS2_Y364_V368L], the enrichment score was inactive: 0.477.

In the case of TNIKRYHIAKG [HARS1_Y150_V155G], the enrichment score is inactive: 0.918.

Take TNIKRYHIAKV [HARS1_Y150]: the enrichment score is inactive: 0.865.

For PVQAAYQKVVP [HBB_Y131_A136P], the enrichment score is inactive: 0.745.

Consider HIAKVYRRDNP [HARS1_Y156], for which the enrichment score was inactive: 0.331.

Take ALDHKYHGGGG [HBB_Y146_A143D]: the enrichment score was inactive: 0.769.

PVQAAYEKVVA [HBB_Y131_Q132E]: the enrichment score is inactive: 0.717.

For VLTSKYHGGGG [HBA1_Y141_R142H], the enrichment score is inactive: 0.682.

Consider PVQAAYQKVEA [HBB_Y131_V135E], for which the enrichment score was inactive: 0.714.

On to ALAHKYPGGGG [HBB_Y146_H147P], for which the enrichment score is inactive: 1.92.

As for ALTDNYMYLVI [HAGH_Y61], the enrichment score is inactive: 0.686.

In the case of ALADKYHGGGG [HBB_Y146_H144D], the enrichment score was inactive: 0.515.

A further test deals with SHP2 N-SH2 domain T52S. Described as above. As to conditions: peptide library: pTyr-Var.
Take PTTKTYFPHFF [HBA1_Y43_D48Y_YF]: the enrichment score was inactive: 1.17.

In the case of PEQAAYQKVVA [HBB_Y131_V127E], the enrichment score is inactive: 0.47.

As to AHAGEYGAEAL [HBA1_Y25], the enrichment score was inactive: 0.568.

As to KKMKRYHVGKV [HARS2_Y151], the enrichment score is inactive: 1.04.

Consider PTTKTYFPHFG [HBA1_Y43_D48G], for which the enrichment score was inactive: 0.686.

VRTSKYRGGGG [HBA1_Y141_L137R]: the enrichment score is inactive: 0.321.

AAGGRYDGLLG [HARS2_Y364_V368L]: the enrichment score was inactive: 0.672.

On to TNIKRYHIAKG [HARS1_Y150_V155G], for which the enrichment score was inactive: 0.935.

As to TNIKRYHIAKV [HARS1_Y150], the enrichment score was inactive: 1.1.

In the case of PVQAAYQKVVP [HBB_Y131_A136P], the enrichment score is inactive: 0.89.

As to HIAKVYRRDNP [HARS1_Y156], the enrichment score is inactive: 0.483.

For the molecule ALDHKYHGGGG [HBB_Y146_A143D], the enrichment score is inactive: 0.869.

As for PVQAAYEKVVA [HBB_Y131_Q132E], the enrichment score was inactive: 0.757.

With VLTSKYHGGGG [HBA1_Y141_R142H], the enrichment score is inactive: 0.681.

For the molecule PVQAAYQKVEA [HBB_Y131_V135E], the enrichment score is inactive: 0.863.

For ALAHKYPGGGG [HBB_Y146_H147P], the enrichment score was inactive: 1.38.

In the case of ALTDNYMYLVI [HAGH_Y61], the enrichment score was inactive: 0.779.

Turning to ALADKYHGGGG [HBB_Y146_H144D], the enrichment score is inactive: 0.855.

Another test deals with SHP2 N-SH2 domain wild-type. The test is described as above. As to conditions: peptide library: pTyr-Var.
With PTTKTYFPHFF [HBA1_Y43_D48Y_YF], the enrichment score is inactive: 1.09.

For PEQAAYQKVVA [HBB_Y131_V127E], the enrichment score was inactive: 0.761.

As to AHAGEYGAEAL [HBA1_Y25], the enrichment score was inactive: 0.651.

Turning to KKMKRYHVGKV [HARS2_Y151], the enrichment score was inactive: 0.942.

Turning to PTTKTYFPHFG [HBA1_Y43_D48G], the enrichment score was inactive: 0.682.

Regarding VRTSKYRGGGG [HBA1_Y141_L137R], the enrichment score was inactive: 0.32.

With AAGGRYDGLLG [HARS2_Y364_V368L], the enrichment score is inactive: 0.716.

Regarding TNIKRYHIAKG [HARS1_Y150_V155G], the enrichment score is inactive: 0.896.

Consider TNIKRYHIAKV [HARS1_Y150], for which the enrichment score was inactive: 0.953.

Take PVQAAYQKVVP [HBB_Y131_A136P]: the enrichment score was inactive: 0.736.

Consider HIAKVYRRDNP [HARS1_Y156], for which the enrichment score was inactive: 0.334.

Take ALDHKYHGGGG [HBB_Y146_A143D]: the enrichment score is inactive: 0.811.

Consider PVQAAYEKVVA [HBB_Y131_Q132E], for which the enrichment score is inactive: 0.957.

As for VLTSKYHGGGG [HBA1_Y141_R142H], the enrichment score was inactive: 0.767.

With PVQAAYQKVEA [HBB_Y131_V135E], the enrichment score is inactive: 0.827.

As for ALAHKYPGGGG [HBB_Y146_H147P], the enrichment score was inactive: 0.143.

With ALTDNYMYLVI [HAGH_Y61], the enrichment score is inactive: 1.01.

For the molecule ALADKYHGGGG [HBB_Y146_H144D], the enrichment score was inactive: 0.818.
